PubChem BioAssay AID445 (National Center for Advancing Translational Sciences (NCATS), 2006)
In all, about 110,000 compounds went through this assay and about 40 (0.04%) were called active. This list was built around the results that the source calls inconclusive (neither active nor inactive); the mix of calls is not that of the screen. Calls follow the shape of the dose curve; as a rule, active = well fitted curve in the direction sought with a large enough effect in the signal ratio (not every such curve was filed as active); inconclusive = small, poorly fitted or top-dose-only effect, or a change in a side signal; inactive = flat fitted curve, though single readings scatter; the % refers to the signal ratio.

Assay: IkB Signaling;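 also: 0% = basal untreated cells and 100% = reference inhibitor full response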
Conditions: ABC-DLBCL IkBa-CBG/CBR dual luciferase ratio (green luciferase fused to IkBa over red control in OCI-Ly3 lymphoma cells), 4 h; IkBa stabilization activation: at 57.1 µM (top of the series), scaled: untreated 0%, proteasome inhibitor 100% unless noted
Outline: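 In this assay, an IκBα–CBG68 fusion accumulates when IKK-driven degradation is blocked; native CBR normalizes for cell number. OCI-Ly3 cells were treated 4 h with compound and doxycycline, then green and red light read after Chroma-Glo addition.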

Row | SMILES | IkBa stabilization activation
1 | COc1ccc(N2CCN(Cc3nc4c(c(=O)[nH]c(=O)n4C)n3CCCc3ccccc3)CC2)cc1 | inactive: -1.52%
2 | O=C(NCc1ccccc1)c1noc2c1CCCCC2 | inconclusive: 6.94% [signal inhibitor]
3 | CCOc1ccc(-c2cc3c(=O)n(CC(=O)NCc4ccc(F)cc4)ccn3n2)cc1 | inactive: 0.593%
4 | CCOC(=O)c1cccc(NC(=O)CCS(=O)(=O)c2ccc3c(c2)CCN3C(=O)CC)c1 | inconclusive: 1.83% [signal inhibitor]
5 | O=C(c1ccc(Cl)cc1)n1nc(-c2cccnc2)nc1NCc1ccc(F)cc1 | inconclusive: 0.839% [signal inhibitor]
6 | COC(=O)C[C@](O)(CCCC(C)(C)O)C(=O)O[C@@H]1C(OC)=C[C@]23CCCN2CCc2cc4c(cc2[C@H]13)OCO4 | inconclusive: -0.222% [signal inhibitor]
7 | CC(=O)c1cccc(NC(=O)c2ccc3nc(Cc4ccccc4)oc3c2)c1 | inconclusive: 10.9% [signal inhibitor]
8 | CCCCOc1ccc(C(=O)N(Cc2ccccc2)C2CCS(=O)(=O)C2)cc1 (stereo unspecified) | inconclusive: 2.13% [signal inhibitor]
9 | c1ccc(CN2CCN(c3nc(-c4ccccc4)nc(-n4ccnc4)n3)CC2)cc1 | inconclusive: 5.16% [signal inhibitor]
10 | CCOc1ccc(-c2nnc(SCC(=O)Nc3cccc(C#N)c3)o2)cc1 | inconclusive: 0.362% [signal inhibitor]
11 | CC(C)c1ccc(NC(=O)C(c2ccccc2)N2CCN(C(=O)c3ccco3)CC2)cc1 (stereo unspecified) | inconclusive: 5.39% [signal inhibitor]
12 | CCCN1Cc2cccc(C(=O)Nc3cc(Cl)ccc3C)c2C1=O | inactive: -0.937%
13 | Cc1cc(C)c2c(c1)c(C)cc1nnc(SCC(=O)c3ccccc3)n12 | inconclusive: 3.37% [signal inhibitor]
14 | O=C(Cc1c[nH]c2ccccc12)NCc1ccc2c(c1)OCO2 | inconclusive: 4.76% [signal inhibitor]
15 | O=C(CN1C(=O)c2ccccc2Sc2ccc(C(=O)N3CCOCC3)cc21)Nc1ccc(Cl)cc1F | inconclusive: 13.3% [signal inhibitor]
16 | Cc1ccc2onc(CC(=O)N3CCN(c4cccc(Cl)c4)CC3)c2c1 | inconclusive: 2.72% [signal inhibitor]
17 | COc1ccc(Oc2ncc3nc(-c4cn(C)c5ccccc45)c(=O)n(CCC#N)c3n2)cc1 | inactive: -0.183% [at 11.4 µM, scaled: untreated 0%, proteasome inhibitor 100%]
18 | CCCCSc1nc2sc3c(c2c(=O)n1-c1ccccc1C)CC(C)(C)OC3 | inconclusive: 4.65% [signal inhibitor]
19 | CCOC(=O)C1=C(C)NC(=O)N[C@@H]1c1coc2cc(C)cc(C)c2c1=O | inactive: 2.82% [at 11.4 µM, scaled: untreated 0%, proteasome inhibitor 100%]
20 | CCOc1ccc(-n2cc(-c3ccccc3)c3c(Nc4cccc(F)c4)ncnc32)cc1 | inconclusive: 4.3% [signal inhibitor]
21 | Cc1ccc(NC(=O)c2cnc(N3CCCC3)nc2C)cc1F | inconclusive: 1.85% [signal inhibitor]

Row | SMILES | IkBa stabilization activation
22 | CCN(Cc1ccccc1)S(=O)(=O)c1cc(Br)cc2c1N(C(=O)C1CC1)CC2 | inconclusive: 6.15% [signal inhibitor]
23 | Cc1ccc(O)c(NC(=O)C2=CC(c3ccco3)=NS(=O)(=O)N2C)c1 | inconclusive: 0.567% [signal inhibitor]
24 | CC(=O)c1c(C)[nH]c(C)c1C(C)=O | inactive: 0.43%
25 | COc1ccc(N2CCN(Cc3nc4c(c(=O)[nH]c(=O)n4C)n3Cc3ccccc3C)CC2)cc1 | inactive: -0.298%
26 | Cc1ccc(CN(C(=O)COc2ccccc2[N+](=O)[O-])c2ccccn2)o1 | inconclusive: -0.576% [signal inhibitor]
27 | Cc1cc(C(=O)COc2ccc3ccc(=O)oc3c2)c(C)n1Cc1cccs1 | inactive: 0.448%
28 | O=c1oc2ccccc2cc1-c1cn2cc(Cc3cc(Cl)ccc3Cl)sc2n1 | inactive: -0.182%
29 | COc1ccc(NC(=O)C2CCCN(S(=O)(=O)c3ccc(F)cc3)C2)cc1 (stereo unspecified) | inconclusive: 1.55% [signal inhibitor]
30 | CCN(CC)S(=O)(=O)c1ccc2c(c1)N(CC(=O)Nc1cccc(C#N)c1)C(=O)CO2 | inconclusive: 2.4% [signal inhibitor]
31 | O=C(c1cnc(N2CCN(c3ncccn3)CC2)c2ccccc12)N1CCN(c2ncccn2)CC1 | inconclusive: 1.98% [signal inhibitor]
32 | O=S1(=O)c2ccccc2N(Cc2cccc(F)c2)c2ccccc21 | inactive: 0.278%
33 | CCCN(CCC)C(=O)Cn1c(=O)n(-c2cccc(C)c2)c(=O)c2c1c1cc(OC)ccc1n2C | inconclusive: -0.57% [signal inhibitor]
34 | CCCCOc1ccc(C(C)NC(=O)CN2C(=O)CSc3ccc(S(=O)(=O)N4CCOCC4)cc32)cc1 (stereo unspecified) | inconclusive: 0.285% [signal inhibitor]
35 | COc1cccc(-c2cc(C(F)(F)F)nc(NCCc3ccc(OC)c(OC)c3)n2)c1 | inconclusive: 9.96% [signal inhibitor]
36 | CC(=O)O[C@H]1C(=O)[C@]2(C)[C@H]([C@H](OC(=O)c3ccccc3)[C@@]3(O)C[C@H](OC(=O)[C@@H](O)[C@@H](NC(=O)c4ccccc4)c4ccccc4)C(C)=C1C3(C)C)[C@]1(OC(C)=O)CO[C@@H]1C[C@@H]2O | inactive: 2.42% [at 11.4 µM, scaled: untreated 0%, proteasome inhibitor 100%]
37 | Cc1cc(NCCCn2ccnc2)n2ncc(-c3ccccc3)c2n1 | inactive: 3.59%
38 | Cc1c(C(=O)OC2CCCCC2)[nH]c2c1C(=O)CC(c1ccc(F)cc1)C2 (stereo unspecified) | inactive: -3.43%
39 | CCOC(=O)c1oc2ccccc2c1NC(=O)c1ccccc1OC | inactive: 1.77%
40 | O=C(CN1CCCN(Cc2cccc(Cl)c2)S1(=O)=O)Nc1ccc2c(c1)OCCO2 | inconclusive: 4.31% [signal inhibitor]
41 | COc1ccccc1CN1CCC(CNC(=O)c2cnn(-c3ccccc3Cl)c2C2CCN(C(=O)OC(C)(C)C)CC2)CC1 | inconclusive: -1.78% [signal inhibitor]
